# Screen size: about 310,000 compounds; about 18,000 (5.8%) were called active. The inconclusive results got no clear call from the source; some entries with a clear call stand among them for comparison. The call rests on the fitted dose curve; in most records, active means well fitted inhibition curve with a large enough effect; inconclusive means small, poorly fitted or top-dose-only effect, or another doubt; inactive means no such curve, though single readings can be large or run the other way. Potencies of inconclusive entries are left out as doubtful fits.
# Experiment: Primary qHTS for delayed death inhibitors of the malarial parasite plastid, 48 hour incubation
# Settings: P. falciparum luciferase growth in erythrocytes; series mostly up to 28.7 µM; activity change, negative = inhibition: at the top concentration
# Summary of the method: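 Compounds are pin-transferred into medium, infected erythrocytes (2% hematocrit, 0.1% parasitemia final) are added, and plates sit one parasite generation at 37 C in 5% CO2. Detection reagent is then added and luminescence measured.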
# On the % scale 0 is the no-effect control and ±100 the full control effect; potency means the concentration at half of the fitted maximal effect; tags describe the fitted curve by direction and shape.
SMILES,"activity change, negative = inhibition",Potency
COc1cccc(C2/C(=C(/O)c3ccc4c(c3)CC(C)O4)C(=O)C(=O)N2CCCn2ccnc2)c1 (configuration not stated),inactive: 11.8%,
O=S(=O)(Nc1ccccc1F)c1ccc(Cl)nc1,,"inconclusive [inhibitor, partial curve, poor fit]"
CCOC(=O)c1c(C)oc2c1c(C=NC1CCS(=O)(=O)C1)c(O)c1ccccc12 (configuration not stated),,"inconclusive [inhibitor, partial curve]"
CCN1C=C(Cc2cccs2)C2=C(C1)C(c1cccs1)C(C#N)=C(N)O2 (configuration not stated),,"inconclusive [inhibitor, partial curve]"
Fc1ccccc1CNCCC(Cc1ccccc1)c1ccc2c(c1)OCO2 (configuration not stated),,"inconclusive [inhibitor, single point]"
N#CCCn1cc(/C=N/NC(=O)c2ccncc2)c(-c2ccc(F)cc2)n1,inactive: 8.19%,
COc1ccccc1NS(=O)(=O)c1cc(NC(=O)C(C)C)ccc1N1CCCCC1,inactive: -19.6%,
COc1ccc2oc(C(=O)N(C)Cc3ccc4c(c3)OCCO4)c(C)c2c1,inactive: 2.44%,
CCN(CC)CCCNc1oc(-c2cccc(Cl)c2)nc1C#N,,"inconclusive [inhibitor, single point]"
Cc1ccc(CCNC(=O)C23CN(Cc4ccccc4)CC2C(c2ccc([N+](=O)[O-])cc2)=NO3)cc1 (configuration not stated),,"inconclusive [inhibitor, single point]"
Cc1ccccc1NC(=S)NCc1ccc2c(c1)OCO2,,"inconclusive [inhibitor, partial curve, poor fit]"
Cc1ccc(NC(=O)C2COc3ccccc3O2)cc1S(=O)(=O)N1CCCCC1 (configuration not stated),,active: 9.28 µM
Cc1cc(C)nc(N2CCCC(C(=O)NCC(c3ccccc3)c3ccccc3)C2)n1 (configuration not stated),,"inconclusive [inhibitor, partial curve]"
O=C(OCCN1C(=O)c2cccc3c(N4CCOCC4)ccc(c23)C1=O)c1cccc(Cl)c1,,"inconclusive [inhibitor, single point]"
O=C(CN1CCN(c2ccccc2F)CC1)N1N=CCC1c1ccccc1 (configuration not stated),inactive: -8.31%,
Cc1ccc2cc(/C=N/NC(=O)[C@H](C)NC(=O)OC(C)(C)C)c(Cl)nc2c1,inactive: 1.78%,
CCc1ccc(-c2cc3c(=O)n(CC(=O)NCCCN4CCN(CC)CC4)nc(C)n3n2)cc1,,"inconclusive [inhibitor, single point]"
Clc1cc2c(c(CSc3nc4ccccc4n4cccc34)c1)OCOC2,,"inconclusive [inhibitor, single point]"
CN(C)c1cccc2c(/C=N/O)ccc(N(C)C)c12,,"inconclusive [inhibitor, partial curve, poor fit]"
O=[N+]([O-])c1cccc(-c2cc3cccc[n+]3cc2-c2cccc([N+](=O)[O-])c2)c1,,active: 0.522 µM
Cc1cc2occ(CC(=O)N(C)CC(=O)Nc3c(C)cccc3C)c2cc1C,,"inconclusive [inhibitor, single point]"

SMILES,"activity change, negative = inhibition",Potency
Cc1cc(NC(=O)CN2CCC(n3nnc4cc(C(F)(F)F)ccc43)CC2)no1,,"inconclusive [inhibitor, partial curve, poor fit]"
CCN(CC)S(=O)(=O)c1ccc(N2CCCC2)c(NC(=O)Cc2ccc(OC)cc2)c1,,"inconclusive [inhibitor, partial curve]"
Cc1ccc(CNC(=O)CN2c3cccc4cccc(c34)S2(=O)=O)cc1,,"inconclusive [inhibitor, single point]"
CCN1CCN(S(=O)(=O)c2ccc(Cl)c(C(=O)Nc3ccc(C(=O)N(CC)CC)cc3)c2)CC1,,"inconclusive [inhibitor, partial curve]"
Cc1ccc(S(=O)(=O)N(C)C)cc1NC(=O)CSc1nc2ccccc2[nH]1,,"inconclusive [inhibitor, single point]"
O=C(c1ccccc1)c1cc2c(cc1[N+](=O)[O-])OCCO2,inactive: -6.74%,
COc1cc(/C=C(\C#N)c2nc3ccccc3[nH]2)cc(Br)c1OCc1ccccc1,,active: 2.94 µM
CC1CCCN(C(=O)CN2C(=O)CSc3ccc(S(=O)(=O)N4CCOCC4)cc32)C1 (configuration not stated),inactive: -16.6%,
CCn1cc(Br)c(C(=O)Nc2sc3c(c2C(N)=O)CCCC3)n1,inactive: 12.4%,
COc1ccc(C2(C)NC(=O)N(CC(=O)Nc3ccc4c(c3)CCC4)C2=O)cc1OC (configuration not stated),,"inconclusive [inhibitor, single point]"
CCn1cc(S(=O)(=O)c2ccc(C)cc2)[nH]c1=O,inactive: 2.28%,
CCN(CC)S(=O)(=O)c1cccc(C(=O)OCc2cc(=O)n3nc(C)sc3n2)c1,inactive: -23.6%,
N#CCSc1nc2ccccc2c2nc3ccccc3n12,,"inconclusive [inhibitor, partial curve, poor fit]"
c1csc(-c2csc3ncnc(NCCCN4CCOCC4)c23)c1,,"inconclusive [inhibitor, single point]"
Cc1cccc2nc(-c3ccccc3)nc(N[C@@H](CO)c3ccccc3)c12,,active: 13.1 µM
CC(C)c1ccc(N2CCN(C(=O)c3ccccc3NC(=O)/C=C(\C(=O)O)c3ccccc3)CC2)cc1,,active: 13.1 µM
COc1cc(OC)cc(-c2nnc(NC(=O)CCS(=O)(=O)c3ccc(F)cc3)o2)c1,,"inconclusive [inhibitor, partial curve]"
Cc1ccc(NC(=O)CS(=O)CC(=O)N(C2CCCC2)C(C)C(=O)NC2CCCCC2)cc1 (configuration not stated),,"inconclusive [inhibitor, single point]"
O=C(Nc1nnc(-c2ccncc2)o1)c1ccc(Br)s1,,"inconclusive [inhibitor, single point]"
CCCCOc1ccc(NC(=O)[C@@H]2CCCN2C(=O)C2CCN(S(=O)(=O)c3ccc(C)cc3)CC2)cc1,,"inconclusive [inhibitor, partial curve, poor fit]"
CCOC(=O)c1ccc(NC(=O)NCc2ccc(OC)cc2)cc1,,"inconclusive [inhibitor, single point]"

# Reference: PubChem BioAssay AID504832 (National Center for Advancing Translational Sciences (NCATS), 2011)
